Laboratory results published in article PMC5087658, “Essential role of the Dishevelled DEP domain in a Wnt-dependent human-cell-based complementation assay” (Journal of Cell Science, 2016).
No constants are given. Whether binding was seen depends on the method and setting. Some entries that bind do so weakly or less than the wild type. For some of these results: Where a sequence is shown, tags or fusion partners need not be part of it.

By UniProt entry, the sequences of proteins in these tests, tags left out. Residues count along the entry.
UniProt Q13467, residues 27-585: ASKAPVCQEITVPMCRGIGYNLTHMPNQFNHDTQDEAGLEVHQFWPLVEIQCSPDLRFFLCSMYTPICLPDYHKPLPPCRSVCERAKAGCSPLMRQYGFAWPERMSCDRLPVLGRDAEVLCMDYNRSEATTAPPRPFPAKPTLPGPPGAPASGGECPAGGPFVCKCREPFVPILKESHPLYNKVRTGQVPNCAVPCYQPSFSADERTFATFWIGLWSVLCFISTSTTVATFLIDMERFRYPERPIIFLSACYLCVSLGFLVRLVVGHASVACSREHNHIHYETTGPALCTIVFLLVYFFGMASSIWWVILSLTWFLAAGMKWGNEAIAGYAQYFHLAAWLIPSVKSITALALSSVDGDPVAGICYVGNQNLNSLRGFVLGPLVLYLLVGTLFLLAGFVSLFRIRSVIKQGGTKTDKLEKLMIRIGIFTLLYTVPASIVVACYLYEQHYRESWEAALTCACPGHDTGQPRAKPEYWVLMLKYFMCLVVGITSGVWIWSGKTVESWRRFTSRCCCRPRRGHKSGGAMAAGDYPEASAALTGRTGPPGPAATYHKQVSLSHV

T1: DVL2 PDZ domain (PDZ_(265-361)) D331A R338A (DARA), 15N-labelled (human) (UniProt O14641)
T1 sequence (chain, 15N-labelled): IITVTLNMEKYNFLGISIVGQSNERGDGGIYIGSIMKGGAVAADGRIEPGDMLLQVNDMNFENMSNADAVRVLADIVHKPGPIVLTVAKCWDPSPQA

T2: DVL2 PDZ domain (PDZ_(265-361)) V334E, 15N-labelled (human) (UniProt O14641)
T2 sequence (chain, 15N-labelled): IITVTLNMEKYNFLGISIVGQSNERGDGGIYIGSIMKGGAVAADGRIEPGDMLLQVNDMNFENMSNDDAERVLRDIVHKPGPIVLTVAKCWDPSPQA

T3: DVL2 PDZ domain (PDZ_(265-361)), wt, 15N-labelled (human) (UniProt O14641)
T3 sequence (chain, 15N-labelled): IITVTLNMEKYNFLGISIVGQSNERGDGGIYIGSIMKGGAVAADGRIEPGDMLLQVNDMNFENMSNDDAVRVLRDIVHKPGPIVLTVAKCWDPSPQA


How the values were obtained:
[1] = molecular target: SNAP–FZD5 (UniProt Q13467); assay: recruitment assay (GFP fusion recruited to membrane-associated SNAP–FZD5 in co-transfected cells, confocal microscopy); co-overexpression of DVL2–GFP or DEP–GFP with SNAP–FZD5 in HEK293T cells; 100 cells scored for DEP–GFP
[2] = molecular target: T1, DVL2 PDZ domain (PDZ_(265-361)) D331A R338A (DARA), 15N-labelled (human); assay: NMR titration; 1H-15N correlation spectra (fast-HSQC or BEST-TROSY) of 100 µM 15N-PDZ alone or with 3x molar excess (300 µM) of DVL-C or Lip–FZD peptide; 298 K, aqueous phosphate buffer at physiological ionic strength, pH 6.7; both purified
[3] = molecular target: T2, DVL2 PDZ domain (PDZ_(265-361)) V334E, 15N-labelled (human); assay: as above
[4] = molecular target: T3, DVL2 PDZ domain (PDZ_(265-361)), wt, 15N-labelled (human); assay: as above

Binder	binding [1]	also measured
human DVL2–GFP, full length, V334E (protein, UniProt O14641 1-736) MAGSSTGGGGVGETKVIYHLDEEETPYLVKIPVPAERITLGDFKSVLQRPAGAKYFFKSMDQDFGVVKEEISDDNARLPCFNGRVVSWLVSSDNPQPEMAPPVHEPRAELAPPAPPLPPLPPERTSGIGDSRPPSFHPNVSSSHENLEPETETESVVSLRRERPRRRDSSEHGAGGHRTGGPSRLERHLAGYESSSTLMTSELESTSLGDSDEEDTMSRFSSSTEQSSASRLLKRHRRRRKQRPPRLERTSSFSSVTDSTMSLNIITVTLNMEKYNFLGISIVGQSNERGDGGIYIGSIMKGGAVAADGRIEPGDMLLQVNDMNFENMSNDDAERVLRDIVHKPGPIVLTVAKCWDPSPQAYFTLPRNEPIQPIDPAAWVSHSAALTGTFPAYPGSSSMSTITSGSSLPDGCEGRGLSVHTDMASVTKAMAAPESGLEVRDRMWLKITIPNAFLGSDVVDWLYHHVEGFPERREARKYASGLLKAGLIRHTVNKITFSEQCYYVFGDLSGGCESYLVNLSLNDNDGSSGASDQDTLAPLPGATPWPLLPTFSYQYPAPHPYSPQPPPYHELSSYTYGGGSASSQHSEGSRSSGSTRSDGGAGRTGRPEERAPESKSGSGSESEPSSRGGSLRRGGEASGTSDGGPPPSRGSTGGAPNLRAHPGLHPYGPPPGMALPYNPMMVVMMPPPPPPVPPAVQPPGAPPVRDLGSVPPELTASRQSFHMAMGNPSEFFVDVM	binds	–
human DVL2–GFP, full length, D331A R338A (DARA) (protein, UniProt O14641 1-736) MAGSSTGGGGVGETKVIYHLDEEETPYLVKIPVPAERITLGDFKSVLQRPAGAKYFFKSMDQDFGVVKEEISDDNARLPCFNGRVVSWLVSSDNPQPEMAPPVHEPRAELAPPAPPLPPLPPERTSGIGDSRPPSFHPNVSSSHENLEPETETESVVSLRRERPRRRDSSEHGAGGHRTGGPSRLERHLAGYESSSTLMTSELESTSLGDSDEEDTMSRFSSSTEQSSASRLLKRHRRRRKQRPPRLERTSSFSSVTDSTMSLNIITVTLNMEKYNFLGISIVGQSNERGDGGIYIGSIMKGGAVAADGRIEPGDMLLQVNDMNFENMSNADAVRVLADIVHKPGPIVLTVAKCWDPSPQAYFTLPRNEPIQPIDPAAWVSHSAALTGTFPAYPGSSSMSTITSGSSLPDGCEGRGLSVHTDMASVTKAMAAPESGLEVRDRMWLKITIPNAFLGSDVVDWLYHHVEGFPERREARKYASGLLKAGLIRHTVNKITFSEQCYYVFGDLSGGCESYLVNLSLNDNDGSSGASDQDTLAPLPGATPWPLLPTFSYQYPAPHPYSPQPPPYHELSSYTYGGGSASSQHSEGSRSSGSTRSDGGAGRTGRPEERAPESKSGSGSESEPSSRGGSLRRGGEASGTSDGGPPPSRGSTGGAPNLRAHPGLHPYGPPPGMALPYNPMMVVMMPPPPPPVPPAVQPPGAPPVRDLGSVPPELTASRQSFHMAMGNPSEFFVDVM	binds	–
SEFFVDVM (C-terminal peptide of Dishevelled 1 (Dvl1); Lee et al., 2015; also called DVL-C peptide; source: kindly provided by Jie Zheng (University of California, Los Angeles)) [C-terminal peptide from Dvl1 (DVL-C)]	–	binding [2]: binds weakly; binding [3]: no binding (tested: 300 µM DVL-C with 100 µM PDZ)
GKTLESWRRFTS [Lipoyl (Lip)-tagged peptide spanning the KTxxxW motif from FZD5]	–	binding [4]: no binding (tested: 300 µM Lip–FZD5 with 100 µM PDZ)
human DVL2–GFP, full length, L445E (protein, UniProt O14641 1-736) MAGSSTGGGGVGETKVIYHLDEEETPYLVKIPVPAERITLGDFKSVLQRPAGAKYFFKSMDQDFGVVKEEISDDNARLPCFNGRVVSWLVSSDNPQPEMAPPVHEPRAELAPPAPPLPPLPPERTSGIGDSRPPSFHPNVSSSHENLEPETETESVVSLRRERPRRRDSSEHGAGGHRTGGPSRLERHLAGYESSSTLMTSELESTSLGDSDEEDTMSRFSSSTEQSSASRLLKRHRRRRKQRPPRLERTSSFSSVTDSTMSLNIITVTLNMEKYNFLGISIVGQSNERGDGGIYIGSIMKGGAVAADGRIEPGDMLLQVNDMNFENMSNDDAVRVLRDIVHKPGPIVLTVAKCWDPSPQAYFTLPRNEPIQPIDPAAWVSHSAALTGTFPAYPGSSSMSTITSGSSLPDGCEGRGLSVHTDMASVTKAMAAPESGLEVRDRMWEKITIPNAFLGSDVVDWLYHHVEGFPERREARKYASGLLKAGLIRHTVNKITFSEQCYYVFGDLSGGCESYLVNLSLNDNDGSSGASDQDTLAPLPGATPWPLLPTFSYQYPAPHPYSPQPPPYHELSSYTYGGGSASSQHSEGSRSSGSTRSDGGAGRTGRPEERAPESKSGSGSESEPSSRGGSLRRGGEASGTSDGGPPPSRGSTGGAPNLRAHPGLHPYGPPPGMALPYNPMMVVMMPPPPPPVPPAVQPPGAPPVRDLGSVPPELTASRQSFHMAMGNPSEFFVDVM	no binding	–
human DVL2–GFP, full length, K446M (protein, UniProt O14641 1-736) MAGSSTGGGGVGETKVIYHLDEEETPYLVKIPVPAERITLGDFKSVLQRPAGAKYFFKSMDQDFGVVKEEISDDNARLPCFNGRVVSWLVSSDNPQPEMAPPVHEPRAELAPPAPPLPPLPPERTSGIGDSRPPSFHPNVSSSHENLEPETETESVVSLRRERPRRRDSSEHGAGGHRTGGPSRLERHLAGYESSSTLMTSELESTSLGDSDEEDTMSRFSSSTEQSSASRLLKRHRRRRKQRPPRLERTSSFSSVTDSTMSLNIITVTLNMEKYNFLGISIVGQSNERGDGGIYIGSIMKGGAVAADGRIEPGDMLLQVNDMNFENMSNDDAVRVLRDIVHKPGPIVLTVAKCWDPSPQAYFTLPRNEPIQPIDPAAWVSHSAALTGTFPAYPGSSSMSTITSGSSLPDGCEGRGLSVHTDMASVTKAMAAPESGLEVRDRMWLMITIPNAFLGSDVVDWLYHHVEGFPERREARKYASGLLKAGLIRHTVNKITFSEQCYYVFGDLSGGCESYLVNLSLNDNDGSSGASDQDTLAPLPGATPWPLLPTFSYQYPAPHPYSPQPPPYHELSSYTYGGGSASSQHSEGSRSSGSTRSDGGAGRTGRPEERAPESKSGSGSESEPSSRGGSLRRGGEASGTSDGGPPPSRGSTGGAPNLRAHPGLHPYGPPPGMALPYNPMMVVMMPPPPPPVPPAVQPPGAPPVRDLGSVPPELTASRQSFHMAMGNPSEFFVDVM	no binding	–
